Experimental data taken from PubChem BioAssay AID624417 (National Center for Advancing Translational Sciences (NCATS), 2012).
Screen size: about 410,000 compounds; about 6,400 (1.6%) were called active. The inconclusive results got no clear call from the source; some entries with a clear call stand among them for comparison. Calls follow the shape of the dose curve; as a rule, active = well fitted inhibition curve with a large enough effect; inconclusive = small, poorly fitted or top-dose-only effect; inactive = no such curve, though single readings can be large or run the other way. A potency beside an inconclusive call is a rough fit, not a confirmed value.

biological target: Glucagon-like peptide 1 receptor (Homo sapiens) (UniProt P43220); assay: qHTS of GLP-1 Receptor Inverse Agonists (Inhibition Mode); conditions: HEK293 GLP-1R CRE-luciferase, luminescence, 24 h, GLP-1R form is constitutively active; activity change, negative = inhibition: at 38.3 µM (top of the series) unless noted; also: nearly all actives have a fitted effect of over 55% in size
Chain of UniProt P43220 (P43220 whole entry, looked up): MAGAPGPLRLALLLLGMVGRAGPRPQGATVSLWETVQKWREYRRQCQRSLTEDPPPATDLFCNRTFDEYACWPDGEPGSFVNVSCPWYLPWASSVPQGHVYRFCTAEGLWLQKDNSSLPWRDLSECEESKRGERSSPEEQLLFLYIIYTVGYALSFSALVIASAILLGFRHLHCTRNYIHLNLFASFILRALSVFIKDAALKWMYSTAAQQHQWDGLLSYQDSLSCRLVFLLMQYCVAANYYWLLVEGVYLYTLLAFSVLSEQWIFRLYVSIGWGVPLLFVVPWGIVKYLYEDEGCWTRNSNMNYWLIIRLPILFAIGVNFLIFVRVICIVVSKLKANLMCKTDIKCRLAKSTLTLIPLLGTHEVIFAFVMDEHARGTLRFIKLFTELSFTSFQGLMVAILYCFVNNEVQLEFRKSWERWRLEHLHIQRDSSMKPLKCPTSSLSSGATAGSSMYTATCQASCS
In short: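 Cells are plated, allowed 12 hours at 37 deg C, then treated with compounds for 24 hr before luciferase detection reagent is added and luminescence is read after 12 min at room temperature. The HEK293 line carries constitutively active GLP-1R with a cAMP-responsive reporter.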
% is scaled to controls: 0 for no effect and ±100 for the full control effect; potency is read from the fitted curve at half-maximal effect; tags tell the direction and shape of the fitted curve.

Potency, inconclusive:
COc1cccc(/C=C/C(=O)OCC(=O)Nc2ccc(Cl)c(S(=O)(=O)N(C)C)c2)c1 3.55 µM [inhibitor, single point], Clc1cccc(-n2ncc3c(N4CCCCC4)ncnc32)c1 15.8 µM [inhibitor, partial curve, poor fit], CCn1c2ccccc2c2cc(N=C3SC(CC(=O)Nc4ccccc4OC)C(=O)N3CCOC)ccc21 (stereo not drawn) 10 µM [inhibitor, partial curve], CCCc1c(C(=O)Nc2ccc(OC)cc2)cnn1-c1ccccc1 10 µM [inhibitor, partial curve, poor fit], Cc1cccc(CN2C(=O)c3ccccc3S(=O)(=O)c3ccc(C(=O)NCCCN4CCCC4)cc32)c1 8.91 µM [inhibitor, partial curve, poor fit], CN(CCc1ccccn1)C(=O)c1ccc(OC2CCN(CCc3ccccc3)CC2)cc1 2.82 µM [inhibitor, full curve], CCOc1ccccc1NC(=O)CCc1ccc(C)o1 22.4 µM [inhibitor, single point], CS(=O)(=O)Nc1cccc(C2=NN(S(=O)(=O)c3ccc(F)cc3)C(c3cccs3)C2)c1 (stereo not drawn) 28.2 µM [inhibitor, single point], CCCC(=O)Nc1nc(C)c(-c2csc(Nc3ccc(Cl)cc3)n2)s1 8.91 µM [inhibitor, partial curve, poor fit], COc1ccc(C)cc1-n1nnnc1SCC1CCCCO1 (stereo not drawn) 12.6 µM [inhibitor, partial curve, poor fit], CCNC(=S)N1CCc2cc(OC)c(OC)cc2C1COc1ccc(F)cc1 (stereo not drawn) 3.98 µM [inhibitor, partial curve, poor fit], Cc1cc(C)c(C(=O)OCc2csc(CC(=O)Nc3ccccc3C)n2)c(C)c1 28.2 µM [inhibitor, single point], COc1cc(-c2csc(NC3CCCCC3)n2)cc(OC)c1OC 28.2 µM [inhibitor, single point], CC1C/C(=N\NC(=S)NCc2ccccc2)CC(C)(C)C1 (stereo not drawn) 28.2 µM [inhibitor, single point], COc1cccc(-c2nn(-c3ccccc3)cc2CN(C)Cc2ccon2)c1 20 µM [inhibitor, single point], COc1ccc(-c2ccc(C(=O)NCc3ccc(F)c(F)c3)c3occc23)c(C)c1 7.94 µM [inhibitor, partial curve, poor fit], CCc1nc2c(OCc3ccccc3C(=O)OC)cccn2c1N(C)C(=O)Nc1ccccc1OC 10 µM [inhibitor, partial curve], O=C(NCCCn1ccnc1)Nc1ccc(Cl)c(Cl)c1 20 µM [inhibitor, single point], CCOc1ccccc1N1CCN(C(=O)CNC(=O)c2sc3ccccc3c2Cl)CC1 10 µM [inhibitor, partial curve, poor fit], CC(C)CN(C(=O)CCCOc1ccc(Cl)cc1Cl)c1c(N)n(Cc2ccccc2)c(=O)[nH]c1=O 12.6 µM [inhibitor, partial curve, poor fit], O=C(Cc1ccccc1F)Nc1ccccc1N1CCCC1 20 µM [inhibitor, single point], Cc1cccc(C)c1NC(=S)N1CCC(c2ccccc2)C1 (stereo not drawn) 8.91 µM [inhibitor, partial curve, poor fit], CC1=C(C(=O)Nc2cc(-c3cccc(F)c3)[nH]n2)C2(CCCCC2)OC1=O 10 µM [inhibitor, partial curve, poor fit], CCCCCCN1CC(=O)N2[C@@H](Cc3c([nH]c4ccccc34)C2(C)C)C1=O 3.16 µM [inhibitor, full curve, poor fit], CC1CC(CCN)(c2ccccc2)C(C)CN1C (stereo not drawn) 12.6 µM [inhibitor, single point], CC(C)(NS(=O)(=O)OCC(Cl)(Cl)Cl)c1ccccc1 11.2 µM [inhibitor, single point], CC(C)N1CCC2(CC1)Oc1ccc(Br)cc1C1CC(c3cccnc3)=NN12 (stereo not drawn) 11.2 µM [inhibitor, single point], CC1(CC(=O)N/N=C/c2cc([N+](=O)[O-])c(O)cc2O)OCCO1 31.6 µM [inhibitor, single point], Cc1ccc(F)c(S(=O)(=O)NC(=O)C2(C)CCN2C(=O)C2(c3ccc(Cl)cc3)CCC2)c1 (stereo not drawn) 1.26 µM [inhibitor, partial curve, poor fit], COc1ccc(S(=O)(=O)N2CCN(c3c(C)cccc3C)CC2)cc1OC 7.94 µM [inhibitor, partial curve, poor fit], Clc1cccc(Cc2c(-c3ccco3)nc3ccc(Cl)cn23)c1 7.94 µM [inhibitor, partial curve, poor fit], Cc1ccc(C(=O)Nc2cccc(C(=O)O)c2)cc1S(=O)(=O)N1CCCC1 10 µM [inhibitor, partial curve], C/C(=N\NC(=S)Nc1cccc(C)c1)c1ccccc1 1.78 µM [inhibitor, full curve, poor fit]

Activity change, negative = inhibition, inactive:
O=C(Cn1cc(S(=O)(=O)Cc2cccc(Cl)c2)c2ccccc21)NCCc1ccccc1 0.155%, CN1CCN(NC(=O)COc2cccc(C(F)(F)F)c2)CC1 -10.8%, CCCCn1c(N)c(N(CCOC)C(=O)c2ccc(Cl)c(S(=O)(=O)N3CCCC3)c2)c(=O)[nH]c1=O 24.9%, CCN(CCCNC(=O)c1nn(C)c2c1CS(=O)(=O)c1ccccc1-2)Cc1ccccc1 -19.2%

Activity change, negative = inhibition, inconclusive:
CCCCNC(=O)N(O)C1N(/N=C/c2ccccc2F)C(=S)SC1(C)C (stereo not drawn) -80.1% [inhibitor]
